In article PMC12136788:
Residue numbers refer to the chain shown, from its start. Some of the results follow.

T1: UNK ZnF1-3 (human, UniProt Q9C0B0 31-174)
T1 sequence: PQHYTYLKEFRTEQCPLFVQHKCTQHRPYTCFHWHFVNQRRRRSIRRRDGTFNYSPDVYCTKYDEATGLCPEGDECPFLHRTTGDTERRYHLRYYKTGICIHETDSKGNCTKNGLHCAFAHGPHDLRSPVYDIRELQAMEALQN

B1: chr8:38205342:38205343:-_ENSG00000147548_ENST00000316985|hu_mus|motif|central (ssRNA)
RNA: GGGAGUUCUACAGUCCGACGAUCCAGAAUUUCAUGUGGUCUUGUGUUUGGAAUUUCUGAAUGGUAAUAGUCAGUAGGGCGGAAGUUUCUAACUGCACCAAAACCGUUGGCUGACCCAUUGGGAUACUGAUUAUAUGGCGGGUACAACAGAGGAUUGAGCAUCA
B2: chr1:174983830:174983831:-_ENSG00000120333_ENST00000367677|hu_mus|motif|central (ssRNA)
RNA: GGGAGUUCUACAGUCCGACGAUCUUCUGAAAUGGUUUUACCAUAUCGCUCGCUGGACUCCAGAAAGUAGCCCGUGGUCAGCGGAGUGGCGGAAGACAAUGCGACUAAGUCUCCAGCGACGCUUAACACCACGUGGGCGAGAUGCAACAGAGGAUUGAGCAUCA
B3: chr10:33190432:33190433:-_ENSG00000150093_ENST00000302278|hu_mus|hu_hu_hu_mus_True|58_58 (ssRNA)
RNA: GGGAGUUCUACAGUCCGACGAUCUACAUUUUCCAAACCUGCAUGUGAAUAAAACCCUGGCCACAGAGCCCCAAAACUACCUAACUGUGACUAAGAUGCUGCUGCUGUGAGCUUGGUGUUGCAAAAUCCGCCUGAGUAGGAUUCCAACAGAGGAUUGAGCAUCA
B4: chr17:56552419:56552420:-_ENSMUSG00000013236_ENSMUST00000086828|mus_mus|mus_mus_mus_hu_False|1_1 (ssRNA)
RNA: GGGAGUUCUACAGUCCGACGAUCAAAAAAUACACUAUUUAAAAAAAAUGAAAUGUCACGGGAUACAGUUACACUGAGAGUUUUAAAAGAAAGCUGGAUUCUGGUCCCAGCCCAGUGUCCCCAGGCUGCAGAGCGGGGCAGAGGCAACAGAGGAUUGAGCAUCA
B5: chr2:71279510:71279511:+_ENSMUSG00000027018_ENSMUST00000028408|mus_mus|FALSE|FALSE (ssRNA)
RNA: GGGAGUUCUACAGUCCGACGAUCUCAUAAACUCUAGACAGUAUUUUAAAAUAUACAAUCUCUCAAAAGGAAAUAUUCCACUAAGGAGAACAUAGAUAACUUUAGGGUCAUCAGAGGUUCACAGCACGAUGCACAGAAAUCUGCCAACAGAGGAUUGAGCAUCA
B6: chr2:148695906:148695907:-_ENSG00000115947_ENST00000542387|hu_mus|motif|central (ssRNA)
RNA: GGGAGUUCUACAGUCCGACGAUCCACCAUUUGAAAAUUAAAGGGCUCCUCUUCAUAUAUGUCAUUUAAAUGUUUCAUUGCGGUUAUAAGACAGAUUUCCAAGACUGACAGACCAUGUACAAUAUUCGCCUUAGAAUCCAAGCUCAACAGAGGAUUGAGCAUCA
B7: chr17:61432403:61432404:+_ENSG00000170921_ENST00000424789|hu_hu|FALSE|FALSE (ssRNA)
RNA: GGGAGUUCUACAGUCCGACGAUCCUUCAUAUUGCACUGGAGUAAAUAAACCUCUGAGAGCGAAACAGGAACUACUUUGUAGCUAGAGCUCUUUAACACUAGAUAGCCUUUCUCUAUGAGGUCAAAUGUAAGUUUCAGAUAUAGCAACAGAGGAUUGAGCAUCA
B8: chr10:24632488:24632489:+_ENSMUSG00000019984_ENSMUST00000092646|mus_hu|motif|central (ssRNA)
RNA: GGGAGUUCUACAGUCCGACGAUCUGCUGGAGACCCACUGUUCAUGGCUUGUGGAGGCACUGCAGCUGGCUCCAUCUUGCGGAUGUGUGUGAUGAAUCGAAGACGAAGUUUUAAAGCUGGUUUUAAGUUACAGAUAAUCUUCUCCAACAGAGGAUUGAGCAUCA
B9: 116608439_116615018_2141_3pUTR_ENSG00000151553_ENST00000369248|human|control|control (ssRNA)
RNA: GGGAGUUCUACAGUCCGACGAUCUUCCAAUGCUUUUGGAGACCCAGGCCACUCCCAUCUUAAGCAGAUAGCACAGUAGUCUCGGAACUGCCUAUGAGCGUCUCGGAGGUAAGUGUCAUAUCCUGUGCCCUCAACAUGGUAGGACAACAGAGGAUUGAGCAUCA
B10: chr10:33190432:33190433:-_ENSG00000150093_ENST00000302278|hu_mus|hu_hu_hu_mus_True|1_1 (ssRNA)
RNA: B3 RNA with U81C, A82U, A137C, G138A, A140U, U141A, U142C, C143U
B11: chrX:71549400:71549401:+_ENSMUSG00000019087_ENSMUST00000019231|mus_hu|mus_mus_mus_hu_False|58_88 (ssRNA)
RNA: GGGAGUUCUACAGUCCGACGAUCGCAGUAGGAAGAGGGAAGCUCUUCAUCCACUGUCGCUGCAGGGUGGGAAAGCACAACCUAGACCACCGUCCCACCCUCAACCCCCCCACUGGCACAGGGUCACACAAUCUGGGUCAAAGACAACAGAGGAUUGAGCAUCA
B12: chr5:54390236:54390237:+_ENSMUSG00000039156_ENSMUST00000071083|mus_hu|FALSE|FALSE (ssRNA)
RNA: GGGAGUUCUACAGUCCGACGAUCACUCAGUGACAUGCAGGGAUCUGUCAUGAGCGCCGGGCUAUCGCCGGCCGCCGCGGCGGGAGAGGAGGCGGCAGUUGCGGCAGAGCCAGUCGCCCGCCGCCCGCGGAGGUGCCGGGGCACCAACAGAGGAUUGAGCAUCA
B13: chr7:129114946:129114947:-_ENSMUSG00000034951_ENSMUST00000057576|mus_mus|FALSE|FALSE (ssRNA)
RNA: GGGAGUUCUACAGUCCGACGAUCAUCCACAAGCAUCAUCAAGCUGUUCUGCAUGCCGGUCAGCUUUGCAGAAAUCACAGCUAUGUCUUGAGUUUUGAAGGUCUCCUCAAUAUCAGCACUCAGCGUGCUCCACUUGUCAGCUUCCAACAGAGGAUUGAGCAUCA
B14: chr12:493273:493274:-_ENSG00000073614_ENST00000399788|hu_mus|FALSE|FALSE (ssRNA)
RNA: GGGAGUUCUACAGUCCGACGAUCUUUUCUCUCCACCACAGGGAUCUUCAAUGUAGAUCCUUGAAGUUCCCAAAAUUUUGCCAGUUGAUCCAAGAAGUCCAAUCUUACUCUAGUCAUUGCCUCAAGUUCAUUCAGGCGCUGGACCAACAGAGGAUUGAGCAUCA

molecular target: T1, UNK ZnF1-3; assay: nsRBNS (natural sequence RNA bind-n-seq); RBNS binding buffer (assumed for nsRBNS): 25 mM Tris pH 7.5, 150 mM KCl, 3 mM MgCl2, 0.01% Triton X-100, 500 ug/ml BSA, 20 U/ml SUPERase-In, 4 C; UNK is unkempt and MSI1 is Musashi-1; names of the RNAs are library labels; protein concentration not given here; high values mean tight binding

Row | Binder | binding signal [enrichment R]
1 | B1 | 1.27
2 | B2 | 0.83
3 | B3 | 1.32
4 | B4 | 2.1
5 | B5 | 0.64
6 | B6 | 1.94
7 | B7 | 0.904
8 | B8 | 0.876
9 | B9 | 0.715
10 | B10 | 1.08
11 | B11 | 0.892
12 | B12 | 0.719
13 | B13 | 0.873
14 | B14 | 0.998
